# Test results as given in the supplement of paper PMC3334620.
# Whole data set: some 33,000 sequences, median “E-score (-0.5 to 0.5)” near -0.041, cut for the highest 2% near 0.37. Some of the results follow.
# Molecular target: T1, Ecm22 (UniProt Q05958)
# T1 sequence: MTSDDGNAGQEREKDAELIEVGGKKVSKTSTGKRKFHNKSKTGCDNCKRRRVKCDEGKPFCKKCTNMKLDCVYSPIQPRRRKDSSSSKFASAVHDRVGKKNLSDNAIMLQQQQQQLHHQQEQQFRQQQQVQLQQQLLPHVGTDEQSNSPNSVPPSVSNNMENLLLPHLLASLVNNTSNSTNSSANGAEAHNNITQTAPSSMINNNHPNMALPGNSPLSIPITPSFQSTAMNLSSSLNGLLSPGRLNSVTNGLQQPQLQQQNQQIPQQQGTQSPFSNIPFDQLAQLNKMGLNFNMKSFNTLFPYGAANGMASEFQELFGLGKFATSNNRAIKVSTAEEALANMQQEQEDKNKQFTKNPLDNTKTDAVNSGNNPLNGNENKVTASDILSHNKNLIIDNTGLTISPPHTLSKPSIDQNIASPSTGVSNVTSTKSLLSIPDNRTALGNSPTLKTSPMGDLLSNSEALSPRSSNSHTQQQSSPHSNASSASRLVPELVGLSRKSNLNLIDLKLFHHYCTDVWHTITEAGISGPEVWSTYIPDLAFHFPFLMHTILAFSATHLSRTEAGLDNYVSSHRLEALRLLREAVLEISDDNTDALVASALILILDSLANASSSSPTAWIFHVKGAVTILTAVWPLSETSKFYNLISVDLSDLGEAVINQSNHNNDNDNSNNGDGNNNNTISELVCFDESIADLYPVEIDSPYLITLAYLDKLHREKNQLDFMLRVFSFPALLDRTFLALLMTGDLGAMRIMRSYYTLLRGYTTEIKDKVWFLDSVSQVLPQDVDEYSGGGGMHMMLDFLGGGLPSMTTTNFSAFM
# Experiment: PBM E-score (8-mer binding enrichment) (E-score (-0.5 to 0.5)); higher = stronger / more preferred TF binding; most listed sequences are background and not binding sites
# Details: protein concentration: 200 nM; construct: GST-full length
# Method in brief: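 Universal all-10-mer Agilent arrays, double-stranded by primer extension on fresh or once-stripped slides, were probed with about 100-200 nM GST-tagged yeast transcription factors made by PURExpress. Fluorescent anti-GST detected bound protein, and masliner normalised the scans. E-scores from the Universal PBM Analysis Suite were given to each ungapped eight-base word pooled with its reverse complement.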
row,Sequence,PBM E-score
1,AACCAGAT,0.0941
2,CGGGTCTC,0.00746
3,CGGACCAA,-0.0431
4,GGGAGTTA,-0.144
5,CGCGAGCA,0.121
6,ATAGAATG,-0.0982
7,CCCTAAAC,0.0362
8,TGCTCGAA,-0.0944
9,GTTTCTGA,0.0514
10,GGGGCAAC,-0.0958
11,AGTTTTCG,0.0929
12,ATACTTAG,-0.0392
13,GGCCTGCA,-0.0917
14,CCCTCATA,-0.201
15,CTAAACGC,0.284
16,ATTTCTGA,-0.286
17,TACCACCA,-0.196
18,GCATGGGC,-0.168
19,AAGCCCCC,-0.226
20,TATAGATA,0.141
21,CTGGGTCA,-0.172
22,ACCTATAC,0.28
23,ATTCAACG,0.211
24,ATTGTAAA,0.17
25,ATGGACTC,-0.0123

row,Sequence,PBM E-score
1,AGGGGCTA,-0.0887
2,CGTCACTC,0.0237
3,TCACGCAA,-0.0645
4,CGTGCCAA,-0.0558
5,AGTGGTGG,-0.151
6,GGCGGCAC,0.0476
7,CCCTGTTA,-0.117
8,GAGCTGTA,-0.219
9,CATGTGCG,-0.145
10,AAATAAAT,0.149
11,AATTCGCT,0.173
12,ATGCAGTG,-0.0612
13,AGCGTGAG,-0.196
14,ACCTTCCA,-0.0381
15,AGGGCTTA,-0.14
16,ACGACCTA,0.384
17,AAATACAG,-0.131
18,GGACTCCC,-0.247
19,GATATGAC,0.0489
20,AATGTGGT,-0.131
21,CGGACTCA,-0.209
22,AATAACCC,0.076
23,TAACAAGA,-0.224
24,AGCGCTAA,0.0597
25,CTCTATAC,0.319

row,Sequence,PBM E-score
1,ATTAGTGG,-0.172
2,AAGTTAAG,-0.298
3,ACCGTTTA,0.432
4,CAATCCCC,-0.107
5,AGACCTAA,-0.13
6,TAATACGA,0.437
7,TCTAGAAA,-0.0993
8,AGTCTACA,-0.0898
9,CAACTGTG,-0.1
10,AGGGGGCG,-0.117
11,CATTAGGC,-0.213
12,CTCCAACA,-0.147
13,CATACGAC,0.451
14,ATACTCAA,0.0434
15,AGTTCAAC,-0.0854
16,CATGCCGA,0.129
17,CATTAGGA,-0.13
18,GGTCGTAC,0.482
19,GGGTGGAA,-0.284
20,GAAGACTC,-0.17
21,TATTAAAA,0.0848
22,ACCGCGGT,0.136
23,ATATATCC,0.0949
24,CCCTTCCG,-0.218
25,AGGTAGAT,0.0145

row,Sequence,PBM E-score
1,ATATCGGC,0.0295
2,CTATCCTC,0.115
3,TACCAGTA,0.0628
4,GGAAGTAC,-0.0217
5,GTGCTGAA,0.0416
6,GTCCCGAC,0.0492
7,ACCGACGA,0.269
8,CAAGGTTC,-0.225
9,CCCAACTC,-0.0551
10,GACAAGAA,-0.0569
11,AAAACCTT,-0.235
12,GACGTCGC,0.0811
13,CATGGGCC,-0.209
14,CTGCAAAA,-0.0893
15,CGCCAGAG,-0.231
16,ATTAGAAT,0.0404
17,AACGCGAT,0.207
18,ACGCATTG,-0.131
19,ATTACAGC,-0.0246
20,AAAAGATG,-0.0856
21,CCGAGATC,0.113
22,CAGAACCA,-0.199
23,GATCGTAA,0.387
24,TATATTAA,0.198
25,ACTGCGAC,0.0785

row,Sequence,PBM E-score
1,CTAGGTAA,-0.0984
2,AACTTGTC,-0.0557
3,CAGTAGCG,0.0734
4,TAACTCGA,0.139
5,AAACGAGG,0.476
6,ACCGCTAG,-0.228
7,ACACGTGA,-0.00871
8,AAAGGAGT,-0.131
9,ACCTGGTG,-0.163
10,AATCGCGG,-0.0579
11,GGTCCAAC,-0.0751
12,GATGTACA,-0.0923
13,GACTGAAC,0.0447
14,CGTCAGGA,-0.0865
15,CACCTGCC,-0.139
16,AGATGTAT,-0.0612
17,ACAGAATC,-0.187
18,CAACGATG,0.207
19,GATGACAC,0.0272
20,AACTTTCG,0.0435
21,ACGCCCGC,0.0667
22,AATGGATA,-0.0169
23,AGGAAAAG,-0.137
24,CCCTCTGA,-0.132
25,GTCTGTCA,-0.0284

row,Sequence,PBM E-score
1,GTTCAGCA,0.0643
2,GTGGGCCA,-0.156
3,CATCGTCA,-0.0402
4,ATCGAGGC,-0.0398
5,AACAGTAA,0.0395
6,AATCTGCG,0.165
7,ACTAGAGT,-0.144
8,AAAAAGTA,0.0279
9,CCCTTTAC,0.0178
10,ACAGCTCT,-0.256
11,ACTGTTAA,0.0622
12,CTCTAGAG,-0.311
13,CACCGAGC,0.0257
14,GGTATACC,0.0922
15,CCATGCAC,-0.255
16,GGGGACCA,-0.259
17,AGTGTTCC,-0.0761
18,ACTTTTCC,-0.123
19,ATAGAGAG,-0.241
20,TGTTGCAA,-0.0124
21,TATGAGCA,-0.147
22,CTTATGAC,0.101
23,GAATTCGA,-0.0811
24,CGTTATTC,0.0353
25,GCTGAGAA,-0.202

row,Sequence,PBM E-score
1,AGCATGTA,0.059
2,AGCGGTGG,-0.128
3,CAAGCTCA,-0.221
4,CGATTATA,0.204
5,AAGTCCTC,-0.169
6,AATCCTGT,-0.0464
7,CGAATAAC,0.211
8,ACCGAGGT,0.225
9,GAGCCAGC,-0.127
10,GTGTTCAA,-0.0789
11,CCTCACCG,-0.0928
12,CCCCCGAC,-0.179
13,AAAGCGGC,0.0182
14,CGAAGTTA,0.128
15,CTCTCTTA,-0.0125
16,AGTGCTCA,-0.297
17,AGACGTGG,-0.227
18,ACTTTAAA,0.018
19,AAAGTGTA,-0.103
20,TTGAACAA,-0.0174
21,TCGCTTAA,0.394
22,AGACCGTA,0.235
